Assay results from paper PMC4336329 (PLoS ONE, 2015).
In all, about 310,000 compounds went through this assay and about 14,000 (4.5%) showed an effect of 50% or more. The effect is printed as a negative number. The list shows a part of the results.

target: human ether-à-go-go-related gene (hERG) potassium channel (human, UniProt Q12809); experiment: primary screen, population patch clamp on CHO cells stably expressing hERG
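Also: peak tail current of the secondary pulse compared with the same well before compound.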

human ether-à-go-go-related gene (hERG) potassium channel, sequence (Q12809 whole entry, looked up): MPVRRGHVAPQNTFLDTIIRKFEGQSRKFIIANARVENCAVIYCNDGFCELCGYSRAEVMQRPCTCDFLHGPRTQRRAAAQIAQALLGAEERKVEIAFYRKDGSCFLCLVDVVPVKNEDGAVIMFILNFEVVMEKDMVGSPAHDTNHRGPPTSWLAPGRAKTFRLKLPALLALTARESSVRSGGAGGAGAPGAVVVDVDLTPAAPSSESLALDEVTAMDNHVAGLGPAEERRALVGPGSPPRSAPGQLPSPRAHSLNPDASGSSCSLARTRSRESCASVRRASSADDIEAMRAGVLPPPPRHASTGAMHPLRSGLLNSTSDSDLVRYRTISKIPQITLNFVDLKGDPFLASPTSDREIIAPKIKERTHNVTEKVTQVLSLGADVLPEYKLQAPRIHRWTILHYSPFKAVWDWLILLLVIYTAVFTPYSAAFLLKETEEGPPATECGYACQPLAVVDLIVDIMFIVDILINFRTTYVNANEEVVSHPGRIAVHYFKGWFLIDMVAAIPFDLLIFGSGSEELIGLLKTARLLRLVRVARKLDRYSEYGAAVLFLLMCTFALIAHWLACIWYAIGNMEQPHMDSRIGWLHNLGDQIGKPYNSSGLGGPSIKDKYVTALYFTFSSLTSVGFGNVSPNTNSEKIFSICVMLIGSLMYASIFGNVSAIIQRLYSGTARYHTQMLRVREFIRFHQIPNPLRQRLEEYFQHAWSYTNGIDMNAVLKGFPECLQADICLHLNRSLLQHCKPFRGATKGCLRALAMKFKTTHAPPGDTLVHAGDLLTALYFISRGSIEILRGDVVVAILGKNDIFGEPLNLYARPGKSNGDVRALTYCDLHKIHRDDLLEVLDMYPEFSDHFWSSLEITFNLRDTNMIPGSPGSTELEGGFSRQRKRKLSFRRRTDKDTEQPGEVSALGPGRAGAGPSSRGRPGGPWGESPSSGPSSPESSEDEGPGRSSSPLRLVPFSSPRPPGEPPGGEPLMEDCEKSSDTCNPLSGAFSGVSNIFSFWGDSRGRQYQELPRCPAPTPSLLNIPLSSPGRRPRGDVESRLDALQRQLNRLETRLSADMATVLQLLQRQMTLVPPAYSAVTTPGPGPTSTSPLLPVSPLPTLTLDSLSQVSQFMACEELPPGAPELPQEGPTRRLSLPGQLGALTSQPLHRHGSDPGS

| Structure (SMILES) | hERG current change (%, negative = inhibition) at 10uM [%] |
| --- | --- |
| CCN(CC(=O)Nc1c(F)cccc1F)C(=O)/C=C/c1ccc(S(=O)(=O)N2CCCCCC2)cc1 | -16.6 |
| Cc1cc(C(=O)NN)n[nH]1 | 12.4 |
| CCn1cc([N+](=O)[O-])c(C(=O)N2N=C(c3cccc4ccccc34)CC2c2ccccc2O)n1 (stereo not shown) | 6.73 |
| O=C1CCCC2=C1C(c1cccs1)n1nc(SCc3ccc(C(=O)O)cc3)nc1N2 (stereo not shown) | 2.81 |
| CC(C)S(=O)(=O)C1=NSC2=NC(=O)/C(=C\c3ccc(OC(=O)c4ccco4)cc3)C(=N)N21 | 12.8 |
| COc1ccc(CCN=C(N)NS(=O)(=O)c2ccc(C)c(C)c2)cc1 | -4.21 |
| O=C(Nc1cccc(Cl)c1Cl)C1CC(=O)N(c2ccc(Br)cc2)C1 (stereo not shown) | 15.8 |
| N#C/C(=C\c1cccs1)C(=O)NCC1CCCO1 (stereo not shown) | 13.1 |
| CCc1ccccc1NC(=O)NCc1cccnc1 | 20 |
| CN(C)CCCOc1ccc2c(c1)Sc1ccccc1CC2=O.Cl | -74.3 |
| O=[N+]([O-])c1ccc(-n2nnnc2CN2CCCCC2)cc1 | 3.57 |
| COCCCNC(=O)Cn1cc(C(=O)C2CC2)c2ccccc21 | -20.6 |
| COc1ccc(C(=O)Nc2cccc(C(=O)O)c2)cc1S(=O)(=O)N1CCCC1 | -6.4 |
| COCCCn1c(C(=O)NC2CCCCC2C)cc2c(=O)n3cccc(C)c3nc21 (stereo not shown) | -12 |
| COC(=O)c1ccccc1NC(=O)CN(c1ccccc1)S(=O)(=O)N(C)C | -19 |
| CC(OC(=O)c1ccc(=O)n(Cc2ccccc2)n1)C(=O)Nc1cccc(Cl)c1 (stereo not shown) | -31.3 |
| Cc1ccc(Cn2c(=N)n(CC(O)c3ccco3)c3ccccc32)cc1.Cl (stereo not shown) | -64.5 |
| O=C(Nc1nc2ccccc2[nH]1)c1ccccc1OC(F)F | 4.59 |
| COc1ccc(Nc2nc(N)nc(CN3CCN(c4ccccn4)CC3)n2)cc1 | -65.1 |
| CN(c1ccc(O)cc1)c1nc(-c2cccs2)cs1 | 15.5 |
| Cc1c(OC(C)C(=O)N[C@H](C(=O)O)c2ccccc2)ccc2c3c(c(=O)oc12)CCCC3 (stereo partly shown) | 3.5 |
| COc1ccccc1/C=N/NC(=O)c1ccc(Cn2nc([N+](=O)[O-])cc2C)cc1 | -12.7 |

| Structure (SMILES) | hERG current change (%, negative = inhibition) at 10uM [%] |
| --- | --- |
| CN(C)c1ccc(C(=O)NCC2CCCO2)cc1 (stereo not shown) | 8.63 |
| CCOC(=O)N1CCc2c(sc(NC(C)=O)c2C(N)=O)C1 | 3.62 |
| CCC(CC)C1C(C#N)=C(N)Oc2cc(C)oc(=O)c21 (stereo not shown) | -12.7 |
| CCn1c(C(C)NC(=O)c2ccc(C)cc2)n[nH]c1=S (stereo not shown) | 12.7 |
| CC1(NC(=O)Nc2cccc3ccccc23)CCS(=O)(=O)C1 (stereo not shown) | 22.8 |
| O=C(CCCNC(=O)c1ccc(Cl)cc1)OCc1cccc(Br)c1 | 14.3 |
| Cc1ccn2c(=O)nc(SCC(=O)N3CCC(C)CC3)nc2c1 | -18.4 |
| COc1ccc(CNC(=O)CN2CCC(n3nnc4cc(F)ccc43)CC2)cc1 | -68 |
| CCOC(=O)c1c(C)c(C(=O)NCc2ccco2)c(C)n1CC | -7.45 |
| COc1ccc(/C=N\NC(=O)C2C(=O)NCC2c2ccccc2)cc1O (stereo not shown) | 24.5 |
| O=C(COc1coc(CN2CCc3ccccc32)cc1=O)Nc1ccc([N+](=O)[O-])cc1 | 8.5 |
| Cc1cnc(NC(=O)CSc2c(Cl)cccc2Cl)s1 | -6.06 |
| CCCc1cc(=O)[nH]c(SCc2cc(=O)oc3c(C)c(C)ccc23)n1 | 0.672 |
| Cc1nn2cc(-c3ccc(N)cc3)nc2s1 | -43.8 |
| O=c1c2c(ncn2C2CCCC2)n(Cc2ccccc2)c(=O)n1CCOc1ccc(Br)cc1 | 13.4 |
| CCOc1cc(/C=N/NC(=O)c2ccc(O)cc2)ccc1Oc1nc(Cl)ncc1F | -7.77 |
| CN(C)CCCNC(=S)Nc1ccc(Oc2ccccc2)cc1 | -3.24 |
| O=C(Nc1ccc(Br)cc1)c1ccc(F)c(S(=O)(=O)NCc2cccs2)c1 | -4.63 |
| COC(=O)c1ccc(NC(=O)Cn2nc(C)c3ccccc3c2=O)cc1 | 3.73 |
| COc1ccc(S(=O)(=O)c2c(O)cc(C)c(NS(=O)(=O)c3ccccc3)c2C)cc1 | 18.7 |
| Cc1cccc(NP(C)(=O)c2nc3c(s2)CCCC3)c1 (stereo not shown) | -0.347 |
| S=C(NCCN1CCOCC1)Nc1ccccc1Cl | 3.99 |

| Structure (SMILES) | hERG current change (%, negative = inhibition) at 10uM [%] |
| --- | --- |
| O=C(N[C@@H](Cc1ccccc1)C(=O)OCc1ccccc1)c1nc[nH]c1C(=O)NC(c1ccccc1)c1ccccc1 | 21.1 |
| O=C(NC1CCCC1)[C@@H]1CSC2c3ccccc3C(=O)N21 (stereo partly shown) | 14.5 |
| COc1ccc2nc3c(cc2c1)c(NC(=O)C1CCCO1)nn3CC(C)C (stereo not shown) | -8.44 |
| CCOC(=O)c1c(NC(=O)CSc2ncn[nH]2)sc(C)c1C | -2.35 |
| COc1ccc([C@H]2CC(=O)C=C(c3cc(Cl)ccc3C)C2)cc1 | 5.62 |
| O=C(C[n+]1cnn(CC(=O)c2ccc(Cl)cc2Cl)c1)c1ccc([N+](=O)[O-])cc1.[Br-] | -73.3 |
| O=c1c2c3c(sc2n(CCN2CCCC2)c(=O)n1Cc1ccco1)CCCCC3 | -68.6 |
| COc1ccccc1C(=O)N/C(=C/c1ccco1)C(=O)Nc1cccc(C(=O)O)c1 | 4.16 |
| COc1ccc2cc(C(=O)/C=C/c3cc(OC)c(O)c(OC)c3)ccc2c1 | 8.79 |
| Cc1cc(CNC(=O)CC2C(=O)NCCN2Cc2ccccc2C(F)(F)F)nn1C (stereo not shown) | 9.04 |
| OCC1CCCC(n2cnc3c(=S)nc[nH]c32)O1 (stereo not shown) | 16.4 |
| CN1C(=O)CC(C(=O)O)SC1=Nc1cccc(C(F)(F)F)c1 (stereo not shown) | 5.61 |
| CCOC(=O)C1(Cc2cccc(OC)c2)CCCN(C(=O)CSC)C1 (stereo not shown) | 4.94 |
| Cn1cccc1/C=N/NC(=O)c1ccc[n+]([O-])c1 | 19.9 |
| CCN(CC)C(=O)c1ccccc1NS(=O)(=O)c1ccc(OC)c(C(=O)N2CCOCC2)c1 | 4.5 |
| Cc1ccc(-c2cc(NC(=O)CCl)n(-c3ccccc3)n2)cc1 | -35.7 |
| O=C(CSc1nnc(Cc2ccccc2)o1)c1cc(F)ccc1F | 14.9 |
| CCOC(=O)c1sc(NC(=O)Cn2nnc3sc4c(c3c2=O)CCCC4)nc1C | -1.92 |
| NC(=O)c1cc2cc(Cc3ccccc3Cl)ccc2oc1=O | 19.7 |
| CCOC(=O)NC(C)N1C(=O)C2C3C=CC(C3)C2C1=O (stereo not shown) | 1.17 |
| COc1ccc(C(c2c(C)n(C)n(-c3ccccc3)c2=O)c2c(C)n(C)n(-c3ccccc3)c2=O)c(OC)c1OC | 19.3 |
| O=c1cc(CSc2ccc(Cl)cc2)[nH]c2[nH]n(-c3ccccc3)c(=O)c12 | 17.6 |

| Structure (SMILES) | hERG current change (%, negative = inhibition) at 10uM [%] |
| --- | --- |
| CCCCOC(=O)C1=C(C)Nc2nnnn2C1c1ccccc1Cl (stereo not shown) | 14.4 |
| COC(=O)c1ccc(/C=N/NS(=O)(=O)c2cc(C)ccc2C)cc1 | -0.827 |
| COc1cc(-c2nn3c(C4CCCCC4)nnc3s2)cc(OC)c1OC | -2.95 |
| CCc1c(C)[nH]c2ccc(C)cc2c1=O | 21.4 |
| CC(C)C(NC(=O)C1CCCCC1)C(=O)NC1CCCC(C)C1C (stereo not shown) | 25.3 |
| Cc1cc(Cl)ccc1OCC(=O)Nc1nc(-c2cccs2)cs1 | 15.6 |
| COc1ccc(N(CC(=O)NCc2ccco2)S(=O)(=O)c2c(C)nn(C)c2C)cc1 | 10.6 |
| CCOc1ccc2c(c1)c(=O)c(S(=O)(=O)c1ccc(C)cc1)cn2CC | -23 |
| COc1ccc(CCNC(=O)Cn2cnc3c(nnn3Cc3ccccc3F)c2=O)cc1OC | 6.55 |
| Cc1nn(Cc2ccc(C(=O)N3CCN(C(=O)c4ccco4)CC3)o2)c(C)c1[N+](=O)[O-] | -32.6 |
| CCOc1ncccc1C(=O)Nc1ccc(C)c(S(=O)(=O)N2CCCCCC2)c1 | -10.6 |
| CCOc1ccc(NC(=O)NCCCSC2CCCCC2)cc1 | -2.88 |
| Cc1ccc(CSc2cc(C)[nH]c(=O)n2)cc1 | 8.93 |
| COc1ccc(OC)c(NC2=NC3(CCCC3)N=C(N)N2)c1 | 21.2 |
| COc1ccccc1NC(=O)CN(c1ccc(C)cc1)S(=O)(=O)c1c(C)n[nH]c1C | -5.7 |
| FC(F)(F)c1cccc(OCCN2CCN(Cc3ccccc3)CC2)c1.O=C(O)C(=O)O | -40.8 |
| Cc1c(Cl)cccc1N1CC(C)(C)C1=O | -2.95 |
| O=C1NC(c2ccccn2)Nc2sc3c(c21)CCC3 (stereo not shown) | 13.9 |
| Brc1ccccc1-n1nnc(-c2ccnc3ccccc23)n1 | 7.38 |
| CCC(C)NC(=O)Cn1c(=O)sc2ccccc21 (stereo not shown) | 4.15 |
| O=C(c1cccs1)N1CCc2c([nH]c3ccccc23)C1c1ccc(Cl)cc1 (stereo not shown) | 6.41 |
| COc1cccc(C(=O)NC(=S)N2CCN(c3ccc(C(F)(F)F)cc3[N+](=O)[O-])CC2)c1 | 1.6 |
